Results are given in words; binding and its absence hold for the method and conditions named. In cells and extracts the contact can be indirect. Some binding calls cover weakened binding; strength is not graded here. Where a sequence is shown, tags or fusion partners need not be part of it.
Columns and labels:
Assay in all cases: co-IP; (Flag)3-TET1 constructs and (HA)3-NANOG constructs expressed together in E14/T ESCs; Benzonase-treated nuclear protein extracts (350 mM KCl); TET1 immunoprecipitated by its Flag tag, immunoblot; for TET1(734–1169) also after phosphatase treatment of the extracts
[1] = biological target: (Flag)3-TET1 734–1202 (mouse) (UniProt Q3URK3)
[2] = biological target: (Flag)3-TET1 1–215 (mouse) (UniProt Q3URK3)
[3] = biological target: (Flag)3-TET1, full-length, wild-type (mouse) (UniProt Q3URK3)
[4] = biological target: (Flag)3-TET1 1–1521 (WT) (mouse) (UniProt Q3URK3)
[5] = biological target: (Flag)3-TET1 1–1547 (WT) (mouse) (UniProt Q3URK3)
[6] = biological target: (Flag)3-TET1 1–631 (mouse) (UniProt Q3URK3)
[7] = biological target: (Flag)3-TET1 full-length triple-mutant (Δ109–120 + Δ1132–1202 + 1522–1547 aromatic→A) (mouse) (UniProt Q3URK3)
[8] = biological target: (Flag)3-TET1 1–108 (mouse) (UniProt Q3URK3)
[9] = biological target: (Flag)3-TET1 734–1155 (mouse) (UniProt Q3URK3)
[10] = biological target: (Flag)3-TET1 1–1472 Δ1+2 (mouse) (UniProt Q3URK3)
[11] = biological target: (Flag)3-TET1 1–1494 Δ1+2 (mouse) (UniProt Q3URK3)
[12] = biological target: (Flag)3-TET1 1–321 (mouse) (UniProt Q3URK3)
[13] = biological target: (Flag)3-TET1 full-length Δ1+2 (Δ109–120 + Δ1132–1202) (mouse) (UniProt Q3URK3)
[14] = biological target: (Flag)3-TET1 full-length Δ1 (Δ109–120) (mouse) (UniProt Q3URK3)
[15] = biological target: (Flag)3-TET1 1–1521 Δ1+2 (mouse) (UniProt Q3URK3)
[16] = biological target: (Flag)3-TET1 full-length Δ2 (Δ1132–1202) (mouse) (UniProt Q3URK3)

Protein sequences, listed by entry. Tags and fused reporters are not part of them. Lines headed by an entry give the natural chain unless they say otherwise; changes in a name come on top. Chains listed by the source or under a name are the forms on record and can include a tag or linker. Residues count along the entry.
UniProt Q3URK3: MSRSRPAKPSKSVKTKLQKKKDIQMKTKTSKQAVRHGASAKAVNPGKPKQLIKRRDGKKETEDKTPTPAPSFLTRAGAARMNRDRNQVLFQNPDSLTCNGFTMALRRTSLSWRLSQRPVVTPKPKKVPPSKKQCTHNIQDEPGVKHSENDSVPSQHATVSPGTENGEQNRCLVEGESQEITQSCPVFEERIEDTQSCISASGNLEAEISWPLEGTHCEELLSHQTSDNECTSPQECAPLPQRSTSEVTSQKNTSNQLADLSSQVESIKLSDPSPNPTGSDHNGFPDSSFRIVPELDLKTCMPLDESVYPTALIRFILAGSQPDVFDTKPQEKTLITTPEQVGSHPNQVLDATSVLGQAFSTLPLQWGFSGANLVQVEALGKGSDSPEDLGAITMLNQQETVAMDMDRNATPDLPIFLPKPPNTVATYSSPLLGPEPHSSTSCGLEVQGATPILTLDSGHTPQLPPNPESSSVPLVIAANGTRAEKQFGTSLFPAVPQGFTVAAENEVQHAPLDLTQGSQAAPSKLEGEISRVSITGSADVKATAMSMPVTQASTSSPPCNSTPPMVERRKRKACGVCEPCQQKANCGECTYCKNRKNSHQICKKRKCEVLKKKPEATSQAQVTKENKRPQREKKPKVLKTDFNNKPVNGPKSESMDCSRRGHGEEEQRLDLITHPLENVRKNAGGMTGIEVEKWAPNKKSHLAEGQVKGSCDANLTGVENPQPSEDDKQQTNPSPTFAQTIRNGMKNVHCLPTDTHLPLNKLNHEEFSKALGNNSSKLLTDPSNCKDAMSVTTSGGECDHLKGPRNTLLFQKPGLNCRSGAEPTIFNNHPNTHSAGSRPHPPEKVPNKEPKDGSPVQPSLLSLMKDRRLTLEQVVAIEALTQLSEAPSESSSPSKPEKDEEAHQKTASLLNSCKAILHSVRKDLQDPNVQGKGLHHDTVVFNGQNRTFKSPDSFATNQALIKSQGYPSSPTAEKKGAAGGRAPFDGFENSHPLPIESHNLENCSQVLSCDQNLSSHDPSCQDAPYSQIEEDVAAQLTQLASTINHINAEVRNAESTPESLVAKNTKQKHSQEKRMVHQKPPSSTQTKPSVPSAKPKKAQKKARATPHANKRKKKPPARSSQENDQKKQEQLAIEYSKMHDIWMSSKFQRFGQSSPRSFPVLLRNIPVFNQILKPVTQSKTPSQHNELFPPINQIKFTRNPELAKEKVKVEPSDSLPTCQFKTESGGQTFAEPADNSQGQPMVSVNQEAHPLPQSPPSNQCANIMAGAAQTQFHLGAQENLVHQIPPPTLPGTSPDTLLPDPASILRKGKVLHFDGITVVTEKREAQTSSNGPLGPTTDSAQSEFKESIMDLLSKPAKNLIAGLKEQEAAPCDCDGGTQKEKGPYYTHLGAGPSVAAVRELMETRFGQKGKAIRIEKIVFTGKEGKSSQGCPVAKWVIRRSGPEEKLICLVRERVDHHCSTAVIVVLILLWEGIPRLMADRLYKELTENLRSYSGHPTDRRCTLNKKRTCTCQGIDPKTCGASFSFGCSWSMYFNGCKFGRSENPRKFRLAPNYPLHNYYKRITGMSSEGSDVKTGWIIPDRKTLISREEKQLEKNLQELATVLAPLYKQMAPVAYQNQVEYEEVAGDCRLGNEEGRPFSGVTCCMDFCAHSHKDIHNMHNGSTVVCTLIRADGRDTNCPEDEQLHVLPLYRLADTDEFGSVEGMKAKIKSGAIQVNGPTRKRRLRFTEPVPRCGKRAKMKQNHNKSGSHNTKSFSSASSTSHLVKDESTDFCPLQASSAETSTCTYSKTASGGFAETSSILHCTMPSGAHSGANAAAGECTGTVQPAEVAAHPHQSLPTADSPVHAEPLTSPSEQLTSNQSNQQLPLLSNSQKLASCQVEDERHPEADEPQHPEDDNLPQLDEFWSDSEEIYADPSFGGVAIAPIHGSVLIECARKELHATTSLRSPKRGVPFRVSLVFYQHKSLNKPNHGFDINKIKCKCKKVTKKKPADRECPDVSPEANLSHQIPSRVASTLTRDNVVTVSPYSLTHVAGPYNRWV
(Flag)3-TET1 1–1547 (WT): residues 1-1547 of Q3URK3
(Flag)3-TET1 1–1521 (WT): residues 1-1521 of Q3URK3
(Flag)3-TET1 1–631: residues 1-631 of Q3URK3
(Flag)3-TET1 1–321: residues 1-321 of Q3URK3
(Flag)3-TET1 1–215: residues 1-215 of Q3URK3
(Flag)3-TET1 1–108: residues 1-108 of Q3URK3
(Flag)3-TET1 734–1202: residues 734-1202 of Q3URK3
(Flag)3-TET1 734–1155: residues 734-1155 of Q3URK3
(Flag)3-TET1 full-length triple-mutant (Δ109–120 + Δ1132–1202 + 1522–1547 aromatic→A) (Q3URK3, form named): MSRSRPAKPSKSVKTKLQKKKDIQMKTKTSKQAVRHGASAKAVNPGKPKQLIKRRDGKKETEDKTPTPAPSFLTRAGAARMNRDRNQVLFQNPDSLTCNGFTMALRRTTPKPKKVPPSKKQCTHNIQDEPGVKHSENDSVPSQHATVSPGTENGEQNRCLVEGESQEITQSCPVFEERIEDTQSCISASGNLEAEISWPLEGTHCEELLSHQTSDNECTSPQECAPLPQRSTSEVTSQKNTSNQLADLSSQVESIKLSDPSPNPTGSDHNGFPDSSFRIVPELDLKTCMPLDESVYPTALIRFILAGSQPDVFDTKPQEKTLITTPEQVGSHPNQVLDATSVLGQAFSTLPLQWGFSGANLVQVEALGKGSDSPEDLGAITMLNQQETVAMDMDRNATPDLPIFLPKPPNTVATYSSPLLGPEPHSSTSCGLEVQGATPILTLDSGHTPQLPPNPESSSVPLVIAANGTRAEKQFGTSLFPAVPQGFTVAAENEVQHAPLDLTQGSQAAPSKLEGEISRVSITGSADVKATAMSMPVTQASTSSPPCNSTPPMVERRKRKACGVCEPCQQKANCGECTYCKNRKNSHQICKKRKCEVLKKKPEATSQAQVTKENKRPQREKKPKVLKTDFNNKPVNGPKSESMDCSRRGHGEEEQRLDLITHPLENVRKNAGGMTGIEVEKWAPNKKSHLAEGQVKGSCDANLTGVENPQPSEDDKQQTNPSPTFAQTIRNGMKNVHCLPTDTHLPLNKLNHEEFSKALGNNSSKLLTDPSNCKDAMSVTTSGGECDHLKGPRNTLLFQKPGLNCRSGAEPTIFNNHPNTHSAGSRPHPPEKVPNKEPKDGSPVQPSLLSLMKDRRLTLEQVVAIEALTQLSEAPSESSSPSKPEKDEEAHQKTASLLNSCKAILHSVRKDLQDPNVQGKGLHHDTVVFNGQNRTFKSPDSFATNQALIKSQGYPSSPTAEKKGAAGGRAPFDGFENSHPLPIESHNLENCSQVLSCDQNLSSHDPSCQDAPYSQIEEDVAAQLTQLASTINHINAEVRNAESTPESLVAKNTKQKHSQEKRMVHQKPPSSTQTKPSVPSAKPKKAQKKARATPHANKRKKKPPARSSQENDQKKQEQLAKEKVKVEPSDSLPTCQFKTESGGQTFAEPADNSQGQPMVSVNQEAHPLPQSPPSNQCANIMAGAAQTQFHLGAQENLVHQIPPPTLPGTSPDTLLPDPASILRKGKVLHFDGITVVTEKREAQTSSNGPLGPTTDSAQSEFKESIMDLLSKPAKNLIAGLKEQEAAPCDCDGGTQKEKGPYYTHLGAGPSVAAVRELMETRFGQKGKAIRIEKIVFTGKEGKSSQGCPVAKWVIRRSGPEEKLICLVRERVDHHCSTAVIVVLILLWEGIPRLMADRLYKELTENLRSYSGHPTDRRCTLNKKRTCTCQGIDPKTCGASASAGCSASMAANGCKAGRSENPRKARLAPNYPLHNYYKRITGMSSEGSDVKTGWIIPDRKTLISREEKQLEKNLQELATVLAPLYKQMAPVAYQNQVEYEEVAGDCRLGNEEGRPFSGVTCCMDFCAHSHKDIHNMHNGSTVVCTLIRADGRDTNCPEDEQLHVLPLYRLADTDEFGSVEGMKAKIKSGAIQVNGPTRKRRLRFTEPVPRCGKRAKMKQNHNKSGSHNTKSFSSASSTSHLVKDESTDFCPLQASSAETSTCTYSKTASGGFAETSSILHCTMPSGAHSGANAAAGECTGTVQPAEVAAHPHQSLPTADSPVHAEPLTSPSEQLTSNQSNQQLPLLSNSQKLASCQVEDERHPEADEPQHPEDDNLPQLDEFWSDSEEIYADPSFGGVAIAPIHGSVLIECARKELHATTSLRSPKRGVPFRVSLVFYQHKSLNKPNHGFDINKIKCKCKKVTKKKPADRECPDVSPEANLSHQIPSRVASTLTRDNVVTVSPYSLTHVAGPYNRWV
(Flag)3-TET1 1–1472 Δ1+2 (Q3URK3, form named): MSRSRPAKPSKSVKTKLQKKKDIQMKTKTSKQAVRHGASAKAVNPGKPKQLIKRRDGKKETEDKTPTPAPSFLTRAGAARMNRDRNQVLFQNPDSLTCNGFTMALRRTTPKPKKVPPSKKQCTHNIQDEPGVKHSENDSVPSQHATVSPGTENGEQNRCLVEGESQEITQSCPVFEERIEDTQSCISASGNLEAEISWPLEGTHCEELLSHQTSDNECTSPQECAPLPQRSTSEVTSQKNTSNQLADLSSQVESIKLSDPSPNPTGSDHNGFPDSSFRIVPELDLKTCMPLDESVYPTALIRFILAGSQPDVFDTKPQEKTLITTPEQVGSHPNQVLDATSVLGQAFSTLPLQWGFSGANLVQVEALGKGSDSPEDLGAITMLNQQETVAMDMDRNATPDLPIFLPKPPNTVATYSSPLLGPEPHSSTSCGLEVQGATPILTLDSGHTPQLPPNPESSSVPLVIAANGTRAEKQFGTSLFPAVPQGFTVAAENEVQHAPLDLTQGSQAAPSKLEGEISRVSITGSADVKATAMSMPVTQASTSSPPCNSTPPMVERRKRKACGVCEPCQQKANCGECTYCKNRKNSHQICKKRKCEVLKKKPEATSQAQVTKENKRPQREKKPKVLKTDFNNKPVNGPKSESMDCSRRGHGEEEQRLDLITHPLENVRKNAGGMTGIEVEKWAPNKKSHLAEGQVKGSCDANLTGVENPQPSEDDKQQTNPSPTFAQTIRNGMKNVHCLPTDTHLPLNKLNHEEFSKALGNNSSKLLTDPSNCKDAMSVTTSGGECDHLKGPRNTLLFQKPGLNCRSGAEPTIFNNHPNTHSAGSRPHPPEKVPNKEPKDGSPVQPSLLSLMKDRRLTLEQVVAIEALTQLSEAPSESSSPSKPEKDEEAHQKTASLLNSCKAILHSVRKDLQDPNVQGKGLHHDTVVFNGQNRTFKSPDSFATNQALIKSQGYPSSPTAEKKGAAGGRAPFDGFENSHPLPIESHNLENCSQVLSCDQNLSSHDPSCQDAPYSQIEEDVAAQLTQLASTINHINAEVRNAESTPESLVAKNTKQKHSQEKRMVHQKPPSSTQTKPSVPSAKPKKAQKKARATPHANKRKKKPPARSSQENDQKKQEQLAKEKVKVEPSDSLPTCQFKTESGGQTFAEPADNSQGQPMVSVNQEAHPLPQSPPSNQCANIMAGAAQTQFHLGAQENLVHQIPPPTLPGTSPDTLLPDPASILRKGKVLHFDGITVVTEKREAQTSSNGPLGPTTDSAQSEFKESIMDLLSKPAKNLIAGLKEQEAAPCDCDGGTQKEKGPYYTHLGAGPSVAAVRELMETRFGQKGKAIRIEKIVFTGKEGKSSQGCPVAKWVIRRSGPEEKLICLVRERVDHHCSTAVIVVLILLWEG

- binding [1]: binds
- binding [2]: binds
- binding [3]: binds
- binding [4]: binds weakly
- binding [5]: binds
- binding [6]: binds
- binding [7]: no binding
- binding [8]: no binding
- binding [9]: no binding
- binding [10]: no binding
- binding [11]: no binding
- binding [12]: binds
- binding [13]: binds
- binding [14]: binds
- binding [15]: no binding
- binding [16]: binds
B1: (HA)3-NANOG (protein, UniProt Q80Z64 1-305)
chain: MSVGLPGPHSLPSSEEASNSGNASSMPAVFHPENYSCLQGSATEMLCTEAASPRPSSEDLPLQGSPDSSTSPKQKLSSPEADKGPEEEENKVLARKQKMRTVFSQAQLCALKDRFQKQKYLSLQQMQELSSILNLSYKQVKTWFQNQRMKCKRWQKNQWLKTSNGLIQKGSAPVEYPSIHCSYPQGYLVNASGSLSMWGSQTWTNPTWSSQTWTNPTWNNQTWTNPTWSSQAWTAQSWNGQPWNAAPLHNFGEDFLQPYVQLQQNFSASDLEVNLEATRESHAHFSTPQALELFLNYSVTPPGEI

From publication PMC7763487 (2020)
